Measurements published in ChEMBL document CHEMBL2157866, “Virtual screening and computational optimization for the discovery of covalent prolyl oligopeptidase inhibitors with activity in human cells” (J Med Chem, 2012).

Test system: Cc1cc(=O)oc2cc(NC(=O)[C@@H]3CCCN3C(=O)CNC(=O)OCc3ccccc3)ccc12
Assay: Activity of human recombinant FAPalpha incubated for 30 mins by fluorimetric assay

## Prolyl endopeptidase FAP (Homo sapiens) (sequence left out)
  Km: 103 µM
